# Test results as given in PubChem BioAssay AID1346428 (National Center for Advancing Translational Sciences (NCATS), 2018).
# Out of some 48,000 compounds screened, about 1,200 (2.5%) were called active. Roughly 2% stayed inconclusive and do not appear here.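 The calls were made as follows: active = activation of at least 60% and not above a set upper limit (about 1 call in 100 departs from these limits); inconclusive = activation of 40% to 60%, or above that upper limit; inactive = activation under 40%.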 Some of the results follow.
# Target: Probable G-protein coupled receptor 32 (Homo sapiens) (UniProt O75388)
# UniProt O75388, sequence (O75388 whole entry, looked up): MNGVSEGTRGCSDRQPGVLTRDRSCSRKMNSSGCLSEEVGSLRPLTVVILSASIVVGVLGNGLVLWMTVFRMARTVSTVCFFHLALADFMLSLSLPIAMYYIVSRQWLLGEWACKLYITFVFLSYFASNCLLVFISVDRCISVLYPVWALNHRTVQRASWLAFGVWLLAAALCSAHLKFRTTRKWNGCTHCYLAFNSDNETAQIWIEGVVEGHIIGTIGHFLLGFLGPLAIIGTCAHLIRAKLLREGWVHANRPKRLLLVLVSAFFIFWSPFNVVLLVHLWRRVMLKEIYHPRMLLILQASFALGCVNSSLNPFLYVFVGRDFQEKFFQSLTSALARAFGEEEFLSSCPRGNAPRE
# Test: qHTS for Agonists of Human Resolvin D1 Receptor DRV1; also: 0% is about no effect
# Conditions: CHO-K1 GPR32 beta-arrestin PathHunter luminescence, 90 min; at 76.9 µM; stronger effect = higher value; zero percent set by DMSO-only wells
# Method in brief: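 Agonism was scored by beta-Gal fragment complementation (chemiluminescent read, 1 h detection at ambient temperature) reporting beta-arrestin binding to GPR32 in engineered CHO-K1 cells. Compound treatment lasted 90 min at 37 C, normalized to a DMSO basal control.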
row,Compound,activation
1,COc1ccc(C)cc1Nc1ncnc2c1c(-c1ccccc1)cn2-c1ccc(C)cc1,inactive: -33.3%
2,CCN(CCCNC(=O)CN1N=C(c2ccccc2)CCC1=O)c1ccccc1,inactive: -21.2%
3,Cc1ccc(C2c3c(oc4ccccc4c3=O)C(=O)N2c2nnc(C)s2)cc1 (configuration not stated),inactive: -0.0204%
4,COc1ccc(OC)c2sc(N3CCN(C(=O)C4COc5ccccc5O4)CC3)nc12 (configuration not stated),inactive: -8.8%
5,COc1ccc(S(=O)(=O)N2CCC(C(=O)Nc3cc(C(F)(F)F)ccc3Cl)CC2)cc1,inactive: -6.39%
6,O=c1[nH]c(=O)n([C@H]2C[C@H](O)[C@@H](CO)O2)cc1F,inactive: 5.27%
7,Cc1cc(C)c2sc(N3CCN(C(=O)c4ccc(N(C)C)cc4)CC3)nc2c1,inactive: 11.4%
8,Cc1ccc(S(=O)(=O)c2c(O)cc(C)c(NS(=O)(=O)c3ccc(Cl)cc3)c2C)cc1,inactive: 31.8%
9,COc1ccccc1N1CCN(S(=O)(=O)c2c(C)nc3sccn3c2=O)CC1,inactive: 0.174%
10,CCCCCCCCCCCCCCCCCC(=O)OCC(O)CO (configuration not stated),inactive: 0.0055%
11,CC(C)c1nn2c(=O)cc(COC(=O)c3ccco3)nc2s1,inactive: -39.4%
12,COc1ccccc1C(=O)Nc1ccc(C(=O)OCc2cc(=O)n3nc(C4CC4)sc3n2)cc1,inactive: -1%
13,O=C(CSc1nc(=O)[nH]c2c1CCCC2)NCc1ccccc1,inactive: -4.08%
14,COc1ccc(N2C(=O)CSC23C(=O)N(CC(=O)NCCc2ccccc2)c2ccccc23)cc1 (configuration not stated),inactive: 25.5%
15,Cc1c(C)c2cc3c(c(C)c2oc1=O)OCN(CCc1ccc(F)cc1)C3,inactive: -20.8%
16,Cc1nn2c(C)c(C(=O)NC(C)(C)C)cnc2c1-c1ccc(F)cc1,inactive: -16.1%
17,Cc1ccc(N2CC(NC(=O)c3cc4ccccc4o3)CC2=O)cc1 (configuration not stated),inactive: -13.5%
18,CCc1ccc(Cn2c(CNS(=O)(=O)c3ccc(C)c(C)c3)nc3cccnc32)cc1,inactive: -28.7%
19,CCCCNC(=O)c1cc2n(n1)CCCN(Cc1ccc(C)cc1)C2=O,inactive: 7.46%
20,CCOc1ccc(C(=O)Nc2ccc3oc(-c4ccc5ccccc5c4)nc3c2)cc1,inactive: 2.14%
21,COc1ccc(NC(=O)Cn2c(=O)n(Cc3ccccc3)c(=O)c3sc4ccccc4c32)cc1,inactive: -0.398%

row,Compound,activation
1,CC1=C(C(=O)Nc2ccccc2C)C(c2ccccn2)n2ncnc2N1 (configuration not stated),inactive: 19.1%
2,CCC(=O)C1=C(c2ccc(C)cc2)N(C(=O)CC)n2c(nnc2C2CCCCC2)S1,inactive: -39.1%
3,CC(=O)N1CCc2cc(S(=O)(=O)NC(CC(C)C)C(=O)Nc3cc(C)cc(C)c3)ccc21 (configuration not stated),inactive: -4.15%
4,Cc1cccc(C)c1NC(=O)CS(=O)(=O)c1nc(-c2ccc(Cl)cc2)cn1-c1ccccc1,inactive: -27.5%
5,CCOc1ccc(Cn2c(=O)sc3ccccc32)cc1,inactive: -3.83%
6,Cc1cccn2c(=O)c3cc(C#N)c(=O)n(-c4nnc(SCc5ccc(Cl)cc5)s4)c3nc12,inactive: -3.7%
7,Cc1c(Cl)cccc1NC(=O)CCOc1ccccc1,inactive: -1.71%
8,Cc1ccc(C)c(Cn2c(=O)c3c(nc4n3CCN4c3ccccc3)n(C)c2=O)c1,inactive: -2.47%
9,Cc1ccc(NC(=O)CN2C(=O)COc3ccc(S(=O)(=O)NC4CCCC4)cc32)cc1N(C)C,inactive: 4.72%
10,Cc1cc(C)c2c(c1)c(C)cc1nnc(SCc3ccccc3C#N)n12,inactive: -14.8%
11,CC1=C(C(=O)Nc2ccc(Cl)cc2)C(c2ccccc2)n2ncc(C(=O)Nc3ccccc3)c2N1 (configuration not stated),inactive: -23.3%
12,Cc1ccc(C)c(-c2ccc(=O)n(Cc3c(F)cccc3Cl)n2)c1,inactive: 11.9%
13,COc1ccc(NC(=O)CSc2nc(-c3cccc(C)c3)[nH]c2-c2ccccc2)cc1OC,inactive: -9.87%
14,CC(=O)N1CCc2c(sc3c2c(=O)n(CCc2ccccc2)c(=O)n3Cc2ccccc2C)C1,inactive: -14.5%
15,CCSc1ncc(Cl)c(C(=O)Nc2sc3c(c2C(=O)NCCCOC)CCCC3)n1,inactive: -5.39%
16,CCN(CC)S(=O)(=O)c1ccc2c(c1)c(=O)c(C(=O)N1CCN(c3cc(Cl)ccc3C)CC1)cn2C,inactive: -1.17%
17,CC(C)Sc1ncc(Cl)c(C(=O)Nc2ccc(S(=O)(=O)N3CCCCC3)cc2)n1,inactive: -48%
18,CC(C)c1noc(-c2ccccc2OCC(=O)Nc2cccc([N+](=O)[O-])c2)n1,inactive: -21.9%
19,O=C(Oc1ccccc1F)c1nc(SCc2ccc(F)cc2)ncc1Cl,inactive: -4.41%
20,CCOc1ccc(Nc2c(S(=O)(=O)c3ccccc3)cnc3ccc(F)cc23)cc1,inactive: -44.8%
21,Cc1ccc(NC(=O)C2CCN(S(=O)(=O)c3cccc4nonc34)CC2)cc1C,active: 101%

row,Compound,activation
1,COc1cc(C2CC(=O)Oc3c2c(=O)[nH]c2ccccc32)cc(OC)c1OC (configuration not stated),inactive: 38.1%
2,Cc1ccc(-c2cc3nc(-c4ccccc4)cc(C(F)(F)F)n3n2)cc1,inactive: -4.79%
3,CCOc1ccc(-c2c(C)nn3c(C)c(C(=O)Nc4cc(C)cc(C)c4)cnc23)cc1OCC,inactive: -0.715%
4,CC(=O)N1CCc2cc(Br)cc(S(=O)(=O)CCC(=O)N3CCN(c4ccccc4Cl)CC3)c21,inactive: -2.22%
5,COc1ccc(-c2nc3scc(CCNS(=O)(=O)c4ccc5c(c4)OCCO5)n3n2)cc1,inactive: 17.1%
6,Cc1ccc(CN(C(=O)COc2cc(C)c(Cl)c(C)c2)c2ccccn2)o1,inactive: 13.1%
7,CCN1CCc2c(sc(-n3cccc3)c2C(C)NC(=O)Nc2ccc(Br)cc2)C1 (configuration not stated),inactive: -23.8%
8,COc1ccc(NC(=O)Cn2cc(S(=O)(=O)c3ccccc3)c(=O)c3cc4c(cc32)OCO4)cc1,inactive: -9.64%
9,Cc1cccc(N2CCN(C(=O)C3CCN(S(=O)(=O)c4c(C)noc4C)CC3)CC2C)c1 (configuration not stated),active: 108%
10,COc1ccc(N(Cc2cccs2)C(=O)c2ccc(OC)c(Cl)c2)cc1,inactive: -19.6%
11,CCCC(=O)OCc1cnc(C)c2oc(=O)c(C(=O)Nc3cccc(C(F)(F)F)c3)cc12,inactive: 2.32%
12,CCC(=O)Nc1ccccc1-c1nc2ccccc2n(CC(=O)Nc2ccccc2OC)c1=O,inactive: -9.11%
13,CCCS(=O)(=O)c1c(S(=O)(=O)CCC)c2cc(C(C)(C)C)ccn2c1C(=O)c1ccccc1,inactive: -16.6%
14,Cc1c(C(=O)Nc2ccccc2)sc2nc(-c3cc4cc(Cl)ccc4oc3=O)[nH]c(=O)c12,inactive: -3.31%
15,COc1cccc(N2CCN(C(=O)C3CCN(S(=O)(=O)c4c(C)noc4/C=C/c4ccccc4F)CC3)CC2)c1,inactive: -15.4%
16,COC(=O)c1ccc(NC(=O)CC2C(=O)N(c3ccccc3)C(=O)N2Cc2ccc(F)cc2)cc1 (configuration not stated),inactive: -15.9%
17,Cc1ccccc1C(=O)Nc1ccc2nc(N3CCCCC3)cc(C)c2c1,inactive: -11.4%
18,COc1cccc(N2CCN(C(=O)c3cc4c(s3)-c3ccccc3OC4)CC2)c1,inactive: -17.3%
19,CC(C)(C)C(=O)NCC(c1ccc2c(c1)OCO2)N1CCOCC1 (configuration not stated),inactive: -8.79%
20,O=C(CSc1nnc(-c2cccs2)o1)Oc1ccccc1Cl,inactive: 9.07%
21,CCN(CC)C(=O)c1sc2c(c1C)c(=O)n(CCc1ccccc1)c(=O)n2Cc1cc(C)ccc1C,inactive: -31.8%

row,Compound,activation
1,O=C(Cn1ccn(-c2ccc(F)cc2)c(=O)c1=O)Nc1ccc(F)cc1,inactive: 0.816%
2,O=C(NCCc1ccc(Cl)cc1)c1ccc(CS(=O)(=O)c2ccc(Cl)cc2)o1,inactive: -18.9%
3,Cc1cccc(C)c1NC(=O)C(NS(=O)(=O)c1cccs1)c1ccccc1 (configuration not stated),inactive: -12%
4,O=C(Cn1ncc2c3ccccc3n(Cc3cccc(Cl)c3)c2c1=O)Nc1ccc(F)cc1F,inactive: -17.6%
5,COc1cc(CNC(=O)c2ccc3c(c2)c(C)c(C)n3Cc2cccc(C)c2)cc(OC)c1OC,inactive: -24.2%
6,COc1ccc(CNC(=O)CCc2c(C)c3cc4c(C)coc4c(C)c3oc2=O)cc1OC,inactive: -17.9%
7,CCCCN(C)CCNC(=O)c1cc2c(=O)n(C)c3ccccc3c2n1C,inactive: -4.13%
8,Cc1ccc(S(=O)(=O)CC(=O)N2CCN(c3nc4c(F)cccc4s3)CC2)cc1,inactive: 28.6%
9,CN1C(=O)c2ccccc2Sc2ccc(NC(=O)c3ccc(C(F)(F)F)cc3)cc21,inactive: 14.9%
10,N#Cc1ccccc1NS(=O)(=O)c1ccc(N2CCCCS2(=O)=O)cc1,inactive: 7.67%
11,CCCc1nn2c(=O)cc(COC(=O)c3ccc(NC(=O)COc4ccccc4)cc3)nc2s1,inactive: -17.2%
12,CCn1c2c(c(=O)n3ncc(C(=O)N4CCN(c5ccc(Cl)cc5)CC4)c13)CN(Cc1ccc(OC)cc1)CC2,inactive: -1%
13,CCn1cc(C(=O)N2CCN(c3ccccc3)CC2)c(=O)c2cc(S(=O)(=O)N3CCOCC3)ccc21,inactive: -0.709%
14,CCC(Oc1ccc(F)cc1)C(=O)Nc1c(C(=O)c2ccc(C)cc2)oc2ccccc12 (configuration not stated),inactive: -13.6%
15,COC(=O)c1cc2oc3ccccc3c2n1Cc1ccc(Cl)cc1,inactive: -15.7%
16,COc1ccc(-c2nc3scc(CCNS(=O)(=O)c4ccc(F)cc4C)n3n2)cc1,inactive: 18.3%
17,O=C1CSC2(C(=O)N(Cc3cccc(F)c3)c3ccccc32)N1c1cccc(C(F)(F)F)c1 (configuration not stated),inactive: -23.6%
18,CC(C)COc1ccc(C(=O)N2CCN(CCc3ccncc3)CC2)cc1,inactive: 14.7%
19,COc1cccc(CN2c3ccccc3-c3nc(SCC(=O)Nc4ccccc4Cl)ncc3S2(=O)=O)c1,inactive: 3.72%
